Results: the supplement of paper PMC10670038
Where a name gives a salt, the structure may show the parent alone. ± gives the standard deviation of the averaged measurements. Over roughly 2,000 compounds, “relative cell viability vs DMSO, compound + 0.2 uM CuET” has its median near 1; the lowest 2% begin near 0.25. This is one part of the list.

Each compound was assayed on TE10 (assay: relative cell viability vs DMSO, compound + 0.2 uM CuET (fraction); TE10 is an esophageal squamous carcinoma line; higher = less cytotoxic). Details: 2 µM; co-treatment: CuET (bis(diethyldithiocarbamate)copper) 0.2 uM; 48 h.
Protocol: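 TE10 ESCC cells (1,000/well, 384-well plates) were treated with Selleck bioactive library compounds at 2 uM combined with 0.2 uM CuET (copper diethyldithiocarbamate) for 48 h. Viability was read by CellTiter-Glo and expressed relative to DMSO wells. Two technical replicates (A, B).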

SMILES	relative cell viability
CC(C)(C)NC[C@H](O)COc1nsnc1N1CCOCC1 [Timolol Maleate]	1.19 ± 0.037
O=C(Nc1cccc2c(=O)cc(-c3nnn[nH]3)oc12)c1ccc(OCCCCc2ccccc2)cc1 [Pranlukast]	0.94 ± 0.14
Nc1nc(Cl)nc2c1ncn2[C@@H]1O[C@H](CO)[C@@H](O)[C@@H]1F [Clofarabine]	0.823 ± 0.0099
CN1CC[C@H](c2c(O)cc(O)c3c(=O)cc(-c4ccccc4Cl)oc23)[C@H](O)C1 [Flavopiridol (Alvocidib)]	0.444 ± 0.28
CN1CC[C@H](c2c(O)cc(O)c3c(=O)cc(-c4ccccc4Cl)oc23)[C@H](O)C1 [Flavopiridol HCl]	0.414 ± 0.25
COc1ccc(-c2cc(=O)c3c(O)cc(O)cc3o2)cc1O [Diosmetin]	0.923 ± 0.036
CC(C)NCC(O)COc1ccc(COCCOC(C)C)cc1 (stereo unspecified) [Bisoprolol fumarate]	1.13 ± 0.065
O=C1CN2Cc3c(ccc(Cl)c3Cl)N=C2N1 [Anagrelide HCl]	1.03 ± 0.11
Nc1nc(F)nc2c1ncn2[C@@H]1O[C@H](CO)[C@@H](O)[C@@H]1O [Fludarabine]	0.478 ± 0.0057
CC[C@H]1OC(=O)[C@H](C)[C@@H](O[C@H]2C[C@@](C)(OC)[C@@H](O)[C@H](C)O2)[C@H](C)[C@@H](O[C@@H]2O[C@H](C)C[C@H](N(C)C)[C@H]2O)[C@](C)(O)C[C@@H](C)/C(=N\OCOCCOC)[C@H](C)[C@@H](O)[C@]1(C)O [Roxithromycin]	1.14 ± 0.086
CC(=O)N1c2ccc(-c3ccc(C(=O)O)cc3)cc2[C@H](Nc2ccc(Cl)cc2)C[C@@H]1C	0.508 ± 0.061
O=C(NCCS(=O)(=O)c1ccc(C(F)(F)F)cn1)c1ccc(Cl)cc1	1.24 ± 0.019
CC(C)CC(=O)Nc1n[nH]c2c1CN(C(=O)C1CCN(C)CC1)C2(C)C	0.844 ± 0.036
C=C1CC[C@H](O)C/C1=C/C=C1\CCC[C@]2(C)[C@@H]([C@H](C)CCCC(C)(C)O)CC[C@@H]12 [Calcifediol]	0.925 ± 0.055
NC(CO)(CO)CO [Trometamol]	1.157 ± 0.011
O=c1ncccn1[C@@H]1O[C@H](CO)[C@@H](O)[C@H]1O [Zebularine]	1.17 ± 0.075
O=C(CCCCCCNC(=O)c1cnc(N(c2ccccc2)c2ccccc2)nc1)NO [Rocilinostat (ACY-1215)]	0.8907 ± 0.0072
CC(C)n1nc(-c2cc3cc(O)ccc3[nH]2)c2c(N)ncnc21	0.742 ± 0.033
NC(=O)N1c2ccccc2C=Cc2ccccc21 [Carbamazepine]	1.15 ± 0.031
C=CC(=O)N1CCN(C(=O)CNc2cc(I)c(Cl)cc2O)CC1 [K-Ras(G12C) inhibitor 12]	1.06 ± 0.13
Clc1ccc(C(Cn2ccnc2)OCc2c(Cl)cccc2Cl)c(Cl)c1 (stereo unspecified) [Isoconazole nitrate]	0.829 ± 0.086
O=c1cc(-c2ccc(O)cc2)oc2cc(O)cc(O)c12 [Apigenin]	1.02 ± 0.037
C[C@@H](N)[C@H]1CC[C@H](C(=O)Nc2ccncc2)CC1	1.22 ± 0.072
COc1ccc2cc(CCC(C)=O)ccc2c1 [Nabumetone]	1.12 ± 0.14
C[C@H]1[C@@H](O)O[C@@H]2O[C@@]3(C)CC[C@H]4[C@H](C)CC[C@@H]1[C@@]24OO3 [Dihydroartemisinin (DHA)]	0.8267 ± 0.0056
COc1ccc(-c2oc3c(CC=C(C)C)c(O[C@@H]4O[C@H](CO)[C@@H](O)[C@H](O)[C@H]4O)cc(O)c3c(=O)c2O[C@@H]2O[C@@H](C)[C@H](O)[C@@H](O)[C@H]2O)cc1 [Icariin]	1.224 ± 0.0063

SMILES	relative cell viability
CCn1cc(C(=O)O)c(=O)c2ccc(C)nc21 [Nalidixic acid]	1.12 ± 0.059
CN(C)c1ccc(C(=O)NCCCCCCC(=O)NO)cc1	0.322 ± 0.042
CCO[C@@H]1OC(=O)C[C@@H]1NC(=O)[C@@H]1CCCN1C(=O)[C@@H](NC(=O)c1ccc(N)c(Cl)c1)C(C)(C)C	1.08 ± 0.081
O=C(CCCN1CC=C(n2c(=O)[nH]c3ccccc32)CC1)c1ccc(F)cc1 [Droperidol]	1.1 ± 0.06
COc1nc(C)nc(Cl)c1NC1=NCCN1 [Moxonidine]	0.994 ± 0.034
Cc1ccc(NC(=O)c2ccc(CN3CCN(C)CC3)cc2)cc1Nc1nc(-c2cccnc2)cs1 [Masitinib (AB1010)]	1.2 ± 0.03
CCCC[C@@H](C=O)NC(=O)[C@H](CC(C)C)NC(=O)OCc1ccccc1 [Calpeptin]	1.12 ± 0.036
O=C(Nc1cc(C(F)(F)F)ccc1N1CCCCC1)c1ccncc1	1.073 ± 0.0082
Cc1cc(Cn2cnc3c2CC(C(=O)O)N(C(=O)C(c2ccccc2)c2ccccc2)C3)ccc1N(C)C (stereo unspecified)	1.12 ± 0.098
Cc1ccc(S(=O)(=O)NC(=O)NN2CC3CCCC3C2)cc1 (stereo unspecified) [Gliclazide]	1.12 ± 0.047
O=C(O)CCNc1cc(N2CCc3ccccc3CC2)nc(-c2ccccn2)n1	0.765 ± 0.0059
Cc1cc([N+](=O)[O-])ccc1NS(=O)(=O)c1cc(Cl)ccc1Cl	0.954 ± 0.1
COc1ccc(COc2ccc(Cc3cnc(N)nc3N)cc2OC)cc1	1.024 ± 0.0044
Cc1ccc(C(=O)c2cc(O)c(O)c([N+](=O)[O-])c2)cc1 [Tolcapone]	1.08 ± 0.18
COc1ccc2[nH]cc(CCNC(C)=O)c2c1 [Melatonin]	1.12 ± 0.061
O=C([O-])c1ccccc1O.[Na+] [Sodium salicylate]	1.15 ± 0.069
C=CC[C@@H]1/C=C(\C)C[C@H](C)C[C@H](OC)[C@H]2O[C@@](O)(C(=O)C(=O)N3CCCC[C@H]3C(=O)O[C@H](/C(C)=C/[C@@H]3CC[C@@H](O)[C@H](OC)C3)[C@H](C)[C@@H](O)CC1=O)[C@H](C)C[C@@H]2OC [Tacrolimus (FK506)]	1.07 ± 0.11
O=C(N/N=C/c1ccc(O)c(O)c1)c1cc2ccccc2cc1O [Dynasore]	0.85 ± 0.071
CN(C)Cc1cccc(N=C(c2ccccc2)c2c(O)[nH]c3cc(C(N)=O)ccc23)c1	0.952 ± 0.014
CCN(CC)CC#CCOC(=O)C(O)(c1ccccc1)C1CCCCC1 (stereo unspecified) [Oxybutynin chloride]	0.994 ± 0.084
CCN(CC)CC#CCOC(=O)C(O)(c1ccccc1)C1CCCCC1 (stereo unspecified) [Oxybutynin]	0.995 ± 0.059
O=C(Cc1cccc(OC(F)(F)F)c1)Nc1ccc(CCCCc2nnc(NC(=O)Cc3ccccn3)s2)nn1	0.501 ± 0.083
Cc1ncc([N+](=O)[O-])n1CCO [Metronidazole]	1.079 ± 0.0041
CC(=O)O/N=C1\C(=O)N(Cc2cc(Cl)ccc2Cl)c2ccc(Cl)cc21	1 ± 0.055
CCN(Cc1ccncc1)C(=O)C(CO)c1ccccc1 (stereo unspecified) [Tropicamide]	1.1 ± 0.071
CCN1CCN(C(=O)N[C@@H](C(=O)N[C@@H]2C(=O)N3[C@@H]2SC(C)(C)[C@@H]3C(=O)O)c2ccccc2)C(=O)C1=O [Piperacillin Sodium]	1.34 ± 0.12

SMILES	relative cell viability
CO[C@@H]1[C@@H](OC(N)=O)[C@@H](O)[C@H](Oc2ccc3c(O)c(NC(=O)c4ccc(O)c(CC=C(C)C)c4)c(=O)oc3c2C)OC1(C)C [Novobiocin Sodium]	0.877 ± 0.068
O=Nc1c(-c2c(O)[nH]c3cc(Br)ccc23)[nH]c2ccccc12	1.083 ± 0.0023
CN(NC(=O)CC(=O)NN(C)C(=S)c1ccccc1)C(=S)c1ccccc1 [Elesclomol (STA-4783)]	0.0573 ± 0.0087
CC(C)C[C@H](NC(=O)[C@H](CCc1ccccc1)NC(=O)CN1CCOCC1)C(=O)N[C@@H](Cc1ccccc1)C(=O)N[C@@H](CC(C)C)C(=O)[C@@]1(C)CO1 [Carfilzomib (PR-171)]	0.198 ± 0.019
COc1ccc(-n2c(C)c([N+](=O)[O-])c3ccc(O)cc32)cc1	1.031 ± 0.0057
O=S(=O)(c1ccccc1)c1cnc2c(N3CCNCC3)cccc2c1	1.06 ± 0.037
NC(=O)N/N=C/c1ccc([N+](=O)[O-])o1 [Nitrofural]	1.3 ± 0.033
O=C(O[C@H]1CN2CCC1CC2)N1CCc2ccccc2[C@@H]1c1ccccc1 [Solifenacin succinate]	1.22 ± 0.053
CC(=O)OCOC(=O)CN(CC(=O)OCOC(C)=O)c1ccccc1OCCOc1ccccc1N(CC(=O)OCOC(C)=O)CC(=O)OCOC(C)=O	0.6484 ± 0.0064
O=C(c1ccc(F)cc1)N1CCCC(c2nc(-c3ccc(F)cc3)no2)C1 (stereo unspecified)	1.12 ± 0.22
CN1CCCC(n2nc(Cc3ccc(Cl)cc3)c3ccccc3c2=O)CC1 (stereo unspecified) [Azelastine HCl]	1.02 ± 0.069
CC1=CC(=O)NS(=O)(=O)O1 [Acesulfame Potassium]	1.06 ± 0.05
CN(C)CCC[C@@]1(c2ccc(F)cc2)OCc2cc(C#N)ccc21 [Escitalopram Oxalate]	1 ± 0.086
CCCC(=O)Nc1ncnc2c1ncn2[C@@H]1O[C@@H]2COP(=O)(O)O[C@H]2[C@H]1OC(=O)CCC [Dibutyryl-cAMP (Bucladesine)]	1.15 ± 0.072
CC(C)C[C@@H](C=O)NC(=O)[C@H](CC(C)C)NC(=O)[C@H](CC(C)C)NC(=O)OCc1ccccc1	0.223 ± 0.006
CCN(CC)Cc1ccc2cc(COC(=O)Nc3ccc(C(=O)NO)cc3)ccc2c1 [Givinostat (ITF2357)]	0.192 ± 0.018
CC(=O)Oc1cccc2c1C(=O)c1c(OC(C)=O)cc(C(=O)O)cc1C2=O [Diacerein]	1.13 ± 0.053
CC(C)(C#N)c1ccc(N2C(=O)OCc3cnc4ccc(-c5cnc6ccccc6c5)cc4c32)cc1	0.296 ± 0.035
N=C(N)NC(=N)N1CCOCC1 [Moroxydine HCl]	1.17 ± 0.034
CCCC(=O)O[C@]1(C(=O)COC(C)=O)CC[C@H]2[C@@H]3C[C@H](F)C4=CC(=O)C=C[C@]4(C)[C@@]3(F)[C@@H](O)C[C@@]21C [Difluprednate]	1.1 ± 0.07
COc1ccc(NS(=O)(=O)c2ccc(N)cc2)nn1 [Sulfamethoxypyridazine]	1.13 ± 0.041
Nc1ccc(C(=O)NCC(=O)O)cc1 [4-Aminohippuric Acid]	1.09 ± 0.062
CNc1nc(Nc2cnn(C3CCN(C4COC4)CC3F)c2Cl)ncc1C(F)(F)F (stereo unspecified)	1.195 ± 0.0015
O=C(c1ccc(C(=O)N2CCC(N3CCCC3)CC2)c(Nc2ccccc2)c1)N1CCC(N2CCCC2)CC1	1.19 ± 0.1
